# Measured values reported in the supplement of paper PMC8728848.
# This is one part of the list.
# B1: SP8524D-bot-399-27-399 (Bacteroides ovatus) (protein)
# chain: DAKYDTLDTHAYIEEALSSTSQKVTVQATGESFTTLNVHLSNLSSTDNHYKLVTDQSVLDTYNHINGTGYIMLPKDYYTLPETITVKAGQYAADALSIALKAFSQEMMKSGESYALPVKLVLQDGSISPMENTGTFVILAESIIEFSAPMFVGAPSLKANKFTESPETYSQYTIEVRFQVANTADRDRAVFKNGGDDANFILLRFEDPQSDNENYKAHSLVQIVGRNRLYLNPSNSFKPNEWQHLALVCDGSNYRLYINGVDSGVLSIPTGATTFSDVNWFCLGDDSYSRWGNCKILMSEARIWSVVRSASQIQNNMTQVSPKSVGLEAYWRFNEGQGNVFEDATGKGHTLTTSATPTWIDGILSTDKSTEWK
# Assays:
# Experiment in all cases: glycan array binding signal (z-score within array); higher = stronger binding
# Conditions in all cases: glycan notation: IUPAC condensed, linker removed
# Glc(b1-6)Glc = molecular target: Glc(b1-6)Glc
# Outline: (§1)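 Glycan array data came from 3228 arrays in the Consortium for Functional Glycomics database, and only arrays with an available protein sequence were kept. Glycan names were put into IUPAC-condensed notation, and columns mapping to the same glycan were averaged. The binding signal is a within-array Z-score, averaged across arrays of one protein sequence run at different concentrations or buffers and across linkers. A negative Z-score can be read as non-binding.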
# GlcA(b1-3)Gal = molecular target: GlcA(b1-3)Gal
# Outline: as §1
# GlcA(b1-3)GlcNAc = molecular target: GlcA(b1-3)GlcNAc
# Outline: as §1
# GlcA(b1-6)Gal = molecular target: GlcA(b1-6)Gal
# Outline: as §1
# [1] = molecular target: GlcA3S(b1-3)Gal(b1-4)GlcNAc(b1-2)Man
# Outline: as §1
# [2] = molecular target: GlcA3S(b1-3)Gal(b1-4)GlcNAc(b1-3)Gal(b1-4)Glc
# Outline: as §1
# [3] = molecular target: GlcNAc(a1-3)Gal(b1-4)GlcNAc
# Outline: as §1
# [4] = molecular target: GlcNAc(a1-4)Gal(b1-3)GlcNAc
# Outline: as §1
# [5] = molecular target: GlcNAc(a1-4)Gal(b1-4)GalNAc
# Outline: as §1
# [6] = molecular target: GlcNAc(a1-4)Gal(b1-4)GlcNAc
# Outline: as §1
# [7] = molecular target: GlcNAc(a1-4)Gal(b1-4)GlcNAc(b1-3)Gal(b1-4)Glc
# Outline: as §1
# [8] = molecular target: GlcNAc(a1-4)Gal(b1-4)GlcNAc(b1-3)Gal(b1-4)GlcNAc
# Outline: as §1
# [9] = molecular target: GlcNAc(a1-4)Gal(b1-4)GlcNAc(b1-3)Gal(b1-4)GlcNAc(b1-3)Gal(b1-4)GlcNAc
# Outline: as §1
# [10] = molecular target: GlcNAc(a1-4)Gal(b1-4)GlcNAc(b1-3)Gal(b1-4)[Fuc(a1-3)]GlcNAc(b1-3)Gal(b1-4)[Fuc(a1-3)]GlcNAc
# Outline: as §1
# [11] = molecular target: GlcNAc(a1-6)Gal(b1-4)GlcNAc
# Outline: as §1
# [12] = molecular target: GlcNAc(b1-2)Gal(b1-3)GalNAc
# Outline: as §1
# [13] = molecular target: GlcNAc(b1-2)Man(a1-3)[GlcNAc(b1-2)Man(a1-6)]Man(b1-4)GlcNAc(b1-4)GlcNAc
# Outline: as §1
# [14] = molecular target: GlcNAc(b1-2)Man(a1-3)[GlcNAc(b1-2)Man(a1-6)]Man(b1-4)GlcNAc(b1-4)[Fuc(a1-6)]GlcNAc
# Outline: as §1
# [15] = molecular target: GlcNAc(b1-2)Man(a1-3)[GlcNAc(b1-4)][GlcNAc(b1-2)Man(a1-6)]Man(b1-4)GlcNAc(b1-4)GlcNAc
# Outline: as §1
# [16] = molecular target: GlcNAc(b1-2)Man(a1-3)[GlcNAc(b1-4)][GlcNAc(b1-2)Man(a1-6)]Man(b1-4)GlcNAc(b1-4)[Fuc(a1-6)]GlcNAc
# Outline: as §1
# [17] = molecular target: GlcNAc(b1-2)[GlcNAc(b1-4)]Man(a1-3)[GlcNAc(b1-2)Man(a1-6)]Man(b1-4)GlcNAc(b1-4)GlcNAc
# Outline: as §1
# [18] = molecular target: GlcNAc(b1-2)[GlcNAc(b1-4)]Man(a1-3)[GlcNAc(b1-4)][GlcNAc(b1-2)Man(a1-6)]Man(b1-4)GlcNAc(b1-4)GlcNAc
# Outline: as §1
# [19] = molecular target: GlcNAc(b1-2)[GlcNAc(b1-4)]Man(a1-3)[GlcNAc(b1-4)][GlcNAc(b1-2)[GlcNAc(b1-6)]Man(a1-6)]Man(b1-4)GlcNAc(b1-4)GlcNAc
# Outline: as §1
# [20] = molecular target: GlcNAc(b1-2)[GlcNAc(b1-4)]Man(a1-3)[GlcNAc(b1-4)][GlcNAc(b1-2)[GlcNAc(b1-6)]Man(a1-6)]Man(b1-4)GlcNAc(b1-4)[Fuc(a1-6)]GlcNAc
# Outline: as §1
# [21] = molecular target: GlcNAc(b1-2)[GlcNAc(b1-6)]Man(a1-6)[GlcNAc(b1-2)Man(a1-3)]Man(b1-4)GlcNAc(b1-4)GlcNAc
# Outline: as §1
# [22] = molecular target: GlcNAc(b1-2)[GlcNAc(b1-6)]Man(a1-6)[GlcNAc(b1-2)Man(a1-3)]Man(b1-4)GlcNAc(b1-4)[Fuc(a1-6)]GlcNAc
# Outline: as §1
# [23] = molecular target: GlcNAc(b1-2)[GlcNAc(b1-6)]Man(a1-6)[GlcNAc(b1-4)][GlcNAc(b1-2)Man(a1-3)]Man(b1-4)GlcNAc(b1-4)GlcNAc
# Outline: as §1
# GlcNAc(b1-3)Fuc = molecular target: GlcNAc(b1-3)Fuc
# Outline: as §1
# GlcNAc(b1-3)Gal = molecular target: GlcNAc(b1-3)Gal
# Outline: as §1
# [24] = molecular target: GlcNAc(b1-3)Gal(b1-3)GalNAc
# Outline: as §1
# GlcNAc(b1-3)Gal(b1-4)Glc = molecular target: GlcNAc(b1-3)Gal(b1-4)Glc
# Outline: as §1
# [25] = molecular target: GlcNAc(b1-3)Gal(b1-4)GlcNAc
# Outline: as §1
# [26] = molecular target: GlcNAc(b1-3)Gal(b1-4)GlcNAc(b1-2)Man(a1-3)[GlcNAc(b1-3)Gal(b1-4)GlcNAc(b1-2)Man(a1-6)]Man(b1-4)GlcNAc(b1-4)GlcNAc
# Outline: as §1
# [27] = molecular target: GlcNAc(b1-3)Gal(b1-4)GlcNAc(b1-2)Man(a1-3)[GlcNAc(b1-3)Gal(b1-4)GlcNAc(b1-2)Man(a1-6)]Man(b1-4)GlcNAc(b1-4)[Fuc(a1-6)]GlcNAc
# Outline: as §1
# [28] = molecular target: GlcNAc(b1-3)Gal(b1-4)GlcNAc(b1-2)[GlcNAc(b1-3)Gal(b1-4)GlcNAc(b1-6)]Man(a1-6)[GlcNAc(b1-3)Gal(b1-4)GlcNAc(b1-2)Man(a1-3)]Man(b1-4)GlcNAc(b1-4)GlcNAc
# Outline: as §1
# [29] = molecular target: GlcNAc(b1-3)Gal(b1-4)GlcNAc(b1-3)Gal(b1-4)GlcNAc
# Outline: as §1
# [30] = molecular target: GlcNAc(b1-3)Gal(b1-4)GlcNAc(b1-3)Gal(b1-4)GlcNAc(b1-2)Man(a1-3)[GlcNAc(b1-3)Gal(b1-4)GlcNAc(b1-3)Gal(b1-4)GlcNAc(b1-2)Man(a1-6)]Man(b1-4)GlcNAc(b1-4)GlcNAc
# Outline: as §1
binder,measurement,setting,value
B1,glycan array binding signal (z-score),Glc(b1-6)Glc,-0.164
same,glycan array binding signal (z-score),GlcA(b1-3)Gal,-0.529
same,glycan array binding signal (z-score),GlcA(b1-3)GlcNAc,-0.533
same,glycan array binding signal (z-score),GlcA(b1-6)Gal,0.393
same,glycan array binding signal (z-score),[1],-0.378
same,glycan array binding signal (z-score),[2],-0.072
same,glycan array binding signal (z-score),[3],-0.203
same,glycan array binding signal (z-score),[4],-0.289
same,glycan array binding signal (z-score),[5],-0.226
same,glycan array binding signal (z-score),[6],0.072
same,glycan array binding signal (z-score),[7],-0.393
same,glycan array binding signal (z-score),[8],-0.166
same,glycan array binding signal (z-score),[9],-0.365
same,glycan array binding signal (z-score),[10],0.669
same,glycan array binding signal (z-score),[11],-0.542
same,glycan array binding signal (z-score),[12],-0.56
same,glycan array binding signal (z-score),[13],-0.165
same,glycan array binding signal (z-score),[14],0.109
same,glycan array binding signal (z-score),[15],0
same,glycan array binding signal (z-score),[16],0.139
same,glycan array binding signal (z-score),[17],16.1
same,glycan array binding signal (z-score),[18],8.43
same,glycan array binding signal (z-score),[19],12.1
same,glycan array binding signal (z-score),[20],2.04
same,glycan array binding signal (z-score),[21],-0.45
same,glycan array binding signal (z-score),[22],0.191
same,glycan array binding signal (z-score),[23],-0.44
same,glycan array binding signal (z-score),GlcNAc(b1-3)Fuc,-0.355
same,glycan array binding signal (z-score),GlcNAc(b1-3)Gal,-0.342
same,glycan array binding signal (z-score),[24],-0.242
same,glycan array binding signal (z-score),GlcNAc(b1-3)Gal(b1-4)Glc,-0.651
same,glycan array binding signal (z-score),[25],-0.287
same,glycan array binding signal (z-score),[26],-0.285
same,glycan array binding signal (z-score),[27],0.361
same,glycan array binding signal (z-score),[28],0.455
same,glycan array binding signal (z-score),[29],-0.359
same,glycan array binding signal (z-score),[30],0.337
